{"source": "PubChem BioAssay (Tox21)", "key": {"[1]": {"target": "Peroxisome proliferator-activated receptor gamma (Homo sapiens) (UniProt P37231)", "sequence (P37231 whole entry, looked up)": "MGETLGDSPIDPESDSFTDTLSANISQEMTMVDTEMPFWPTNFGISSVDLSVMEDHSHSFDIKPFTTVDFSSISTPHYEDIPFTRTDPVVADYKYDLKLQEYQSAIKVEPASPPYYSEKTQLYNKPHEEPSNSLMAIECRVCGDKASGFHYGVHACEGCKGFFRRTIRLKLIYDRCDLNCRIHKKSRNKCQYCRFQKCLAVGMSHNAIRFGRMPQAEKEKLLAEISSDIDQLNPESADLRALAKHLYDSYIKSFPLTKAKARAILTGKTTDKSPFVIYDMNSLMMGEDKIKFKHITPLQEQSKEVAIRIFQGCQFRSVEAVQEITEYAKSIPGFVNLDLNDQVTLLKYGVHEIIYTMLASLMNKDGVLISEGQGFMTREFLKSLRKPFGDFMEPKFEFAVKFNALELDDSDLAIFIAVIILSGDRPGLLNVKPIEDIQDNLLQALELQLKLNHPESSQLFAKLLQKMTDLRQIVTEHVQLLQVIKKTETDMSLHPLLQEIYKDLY", "assay": "qHTS assay to identify small molecule agonists of the peroxisome proliferator-activated receptor gamma (PPARg) signaling pathway (AID 743094; active = well fitted activation curve with a large enough effect in the signal ratio in the repeat runs, not every such curve was filed as active; inconclusive = weak or mixed curves, or effect the other way; inactive = no such curve, though single readings can be large or run the other way; the % refers to the signal ratio)", "details": "HEK293H PPARg-UAS-bla, beta-lactamase FRET ratio, 17 h; activation: at 57 µM (top of the series) unless noted", "outline": "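HEK293H PPARg-bla cells, 5 h settle at 37C/5% CO2; compound (DMSO) 17 h, 37C; B/G FRET substrate 1 h RT; fluorescence intensity read-out. qHTS format.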"}, "[2]": {"target": "Peroxisome proliferator-activated receptor gamma (Homo sapiens) (UniProt P37231)", "assay": "qHTS assay to identify small molecule antagonists of the peroxisome proliferator-activated receptor gamma (PPARg) signaling pathway (AID 743191); also: nearly all actives have a fitted effect of over 30% in size", "details": "HEK293H PPARg-UAS-bla, beta-lactamase ratio, antagonist, 17 h; ratio activity, negative = inhibition: at 62.6 µM (top of the series) unless noted", "outline": "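GeneBLAzer PPARg UAS-bla HEK293H cells carrying a UAS-driven beta-lactamase reporter were plated at 3000 cells/well, preincubated 5 h at 37C, then given compound for 17 h at 37C; LiveBLAzer B/G FRET substrate was read after 1 h at room temperature.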"}}, "note": "Values joined by “and” are separate entries in the source; they are usually repeats but may differ in a detail not shown here. Equal entries are not always repeated. This list was built around the results that the source calls inconclusive (neither active nor inactive); the mix of calls is not that of the screen. Potencies of inconclusive entries are doubtful fits and often do not repeat. Active and inactive are the calls of the source. Unless noted, calls follow the shape of the full dose curve. % is scaled to controls: 0 for no effect and ±100 for the full control effect; potency is read from the fitted curve at half-maximal effect; tags tell the direction and shape of the fitted curve or compound fluorescence and quenching.", "data": [{"compound": "Cc1cc(O)c2c(O)c3c(O)cccc3cc2c1", "values": [{"measurement": "Potency", "setting": "[1]", "value": "inconclusive: 2.68 µM [activator, partial curve]"}, {"measurement": "Potency", "setting": "[2]", "value": "inconclusive: 10.6 µM [rising, partial curve]"}]}, {"compound": "Cc1occc(=O)c1O", "values": [{"measurement": "Potency", "setting": "[1]", "value": "inactive"}]}, {"compound": "CCCCCCCCS(=O)(=O)O", "values": [{"measurement": "activation", "setting": "[1]", "value": "inconclusive: 7.39% [at 78.9 µM]"}, {"measurement": "ratio activity, negative = inhibition", "setting": "[2]", "value": "inconclusive: 6.07% [at 81.1 µM]"}]}, {"compound": "NS(=O)(=O)c1cc(-c2nn[nH]n2)c(NCc2cccs2)cc1Cl", "values": [{"measurement": "activation", "setting": "[1]", "value": "inconclusive: 5.62%"}, {"measurement": "ratio activity, negative = inhibition", "setting": "[2]", "value": "inconclusive: -26.3%"}]}, {"compound": "Nc1c(CC(=O)O)cccc1C(=O)c1ccc(Br)cc1", "values": [{"measurement": "Potency", "setting": "[1]", "value": "inconclusive: 23.9 µM [activator, partial curve]"}, {"measurement": "ratio activity, negative = inhibition", "setting": "[2]", "value": "inconclusive: -28.6%"}]}, {"compound": "Nc1ncn([C@H]2C[C@H](O)[C@@H](CO)O2)c(=O)n1", "values": [{"measurement": "Potency", "setting": "[1]", "value": "inactive"}, {"measurement": "ratio activity, negative = inhibition", "setting": "[2]", "value": "inconclusive: -19.8%"}]}, {"compound": "CCCCCCCCCC(C)C=O", "note": "(configuration not stated)", "values": [{"measurement": "Potency", "setting": "[1]", "value": "active: 19.5 µM"}, {"measurement": "ratio activity, negative = inhibition", "setting": "[2]", "value": "inconclusive: -39%"}]}, {"compound": "Nc1ccccc1S(=O)(=O)O", "values": [{"measurement": "Potency", "setting": "[1]", "value": "inactive"}]}, {"compound": "CCCCC1CCCCC(=O)O1", "note": "(configuration not stated)", "values": [{"measurement": "activation", "setting": "[1]", "value": "inconclusive: 12.4%"}]}, {"compound": "C[N+](C)(C)CCOC(N)=O", "values": [{"measurement": "activation", "setting": "[1]", "value": "inconclusive: 12%"}, {"measurement": "Potency", "setting": "[2]", "value": "inconclusive: 33.5 µM [activator, partial curve, poor fit]"}]}, {"compound": "COc1ccc(CN(CCN(C)C)c2ncccn2)cc1", "values": [{"measurement": "Potency", "setting": "[1]", "value": "inactive"}, {"measurement": "Potency", "setting": "[2]", "value": "inactive"}]}, {"compound": "Cc1cccc(Nc2ccccc2C(=O)O)c1C", "values": [{"measurement": "activation", "setting": "[1]", "value": "inconclusive: -6.95% and inconclusive: -18%"}, {"measurement": "Potency", "setting": "[2]", "value": "active: 43.6 µM and inconclusive: 29.8 µM [partial curve]"}]}, {"compound": "CC/C(=C\\C(=N/O)C(N)=O)C(C)[N+](=O)[O-]", "note": "(configuration not stated)", "values": [{"measurement": "Potency", "setting": "[1]", "value": "inconclusive: 61.6 µM [activator, single point]"}]}, {"compound": "CCC1=C(C)CN(C(=O)NCCc2ccc(S(=O)(=O)NC(=O)NC3CCC(C)CC3)cc2)C1=O", "note": "(configuration not stated)", "values": [{"measurement": "Potency", "setting": "[1]", "value": "inconclusive: 3.79 µM [rising, full curve, poor fit]"}, {"measurement": "Potency", "setting": "[2]", "value": "inconclusive: 6.68 µM [rising, full curve]"}]}, {"compound": "COc1c(N2CCNC(C)C2)c(F)cc2c(=O)c(C(=O)O)cn(C3CC3)c12", "note": "(configuration not stated)", "values": [{"measurement": "Potency", "setting": "[1]", "value": "inactive"}, {"measurement": "Potency", "setting": "[2]", "value": "inactive"}]}, {"compound": "OCCOCCOCCO", "values": [{"measurement": "activation", "setting": "[1]", "value": "inconclusive: -10.4% [at 78.9 µM]"}, {"measurement": "Potency", "setting": "[2]", "value": "inactive"}]}, {"compound": "CCCCCC(N)=O", "values": [{"measurement": "Potency", "setting": "[1]", "value": "inactive"}, {"measurement": "Potency", "setting": "[2]", "value": "inactive"}]}, {"compound": "Cc1c(C(=O)NCCO)[n+](=O)c2ccccc2n1[O-]", "values": [{"measurement": "Potency", "setting": "[1]", "value": "inactive"}, {"measurement": "Potency", "setting": "[2]", "value": "inactive"}]}, {"compound": "Nc1ccnc(=O)[nH]1", "values": [{"measurement": "Potency", "setting": "[1]", "value": "inactive"}]}, {"compound": "Cc1nc2ccc(CN(C)c3ccc(C(=O)N[C@@H](CCC(=O)O)C(=O)O)s3)cc2c(=O)[nH]1", "values": [{"measurement": "activation", "setting": "[1]", "value": "inconclusive: -12.8%"}]}, {"compound": "C=C(C)C(=O)OCC", "values": [{"measurement": "Potency", "setting": "[1]", "value": "inactive"}]}, {"compound": "CC(C)C[C@H](NC(=O)OCC1c2ccccc2-c2ccccc21)C(=O)O", "values": [{"measurement": "Potency", "setting": "[1]", "value": "inconclusive: 5.49 µM [activator]"}, {"measurement": "Potency", "setting": "[2]", "value": "inconclusive: 17.4 µM [rising, partial curve, poor fit]"}]}, {"compound": "CCCCOC(=O)CC#N", "values": [{"measurement": "Potency", "setting": "[1]", "value": "inactive"}]}, {"compound": "CNC(=S)NC", "values": [{"measurement": "activation", "setting": "[1]", "value": "inconclusive: 1.88%"}, {"measurement": "Potency", "setting": "[2]", "value": "inactive"}]}, {"compound": "C[C@]12CCC(=O)C=C1[C@@H]1C[C@@H]1[C@H]1[C@@H]3[C@@H]4C[C@@H]4[C@@]4(CCC(=O)O4)[C@@]3(C)CC[C@@H]12", "values": [{"measurement": "Potency", "setting": "[1]", "value": "inconclusive: 10.7 µM"}, {"measurement": "ratio activity, negative = inhibition", "setting": "[2]", "value": "inconclusive: 21.2%"}]}, {"compound": "COc1ccc(S(=O)(=O)Nc2nnc(CC(C)C)s2)cc1", "values": [{"measurement": "Potency", "setting": "[1]", "value": "inactive"}, {"measurement": "Potency", "setting": "[2]", "value": "inconclusive: 18.8 µM [rising, partial curve, poor fit]"}]}, {"compound": "CCCC(C)=O", "values": [{"measurement": "Potency", "setting": "[1]", "value": "inactive"}, {"measurement": "ratio activity, negative = inhibition", "setting": "[2]", "value": "inconclusive: -3.48%"}]}, {"compound": "CC1=C(C)C(=O)C(C(CCCCCC(=O)O)c2ccccc2)=C(C)C1=O", "note": "(configuration not stated)", "values": [{"measurement": "activation", "setting": "[1]", "value": "inconclusive: 5.44%"}]}, {"compound": "CC(O)CNCC(C)O", "note": "(configuration not stated)", "values": [{"measurement": "Potency", "setting": "[1]", "value": "inactive"}, {"measurement": "Potency", "setting": "[2]", "value": "inactive"}]}, {"compound": "CC(=O)CC(=O)Nc1ccc(C)cc1C", "values": [{"measurement": "activation", "setting": "[1]", "value": "inconclusive: -4.33%"}, {"measurement": "ratio activity, negative = inhibition", "setting": "[2]", "value": "inconclusive: -31.4%"}]}, {"compound": "CCCCOCC(C)O", "note": "(configuration not stated)", "values": [{"measurement": "Potency", "setting": "[1]", "value": "inactive"}, {"measurement": "Potency", "setting": "[2]", "value": "inactive"}]}, {"compound": "CCCCCCCCCCOS(=O)(=O)O", "values": [{"measurement": "activation", "setting": "[1]", "value": "inconclusive: 5.28%"}, {"measurement": "Potency", "setting": "[2]", "value": "inconclusive: 2.45 µM [inhibitor, partial curve, poor fit]"}]}, {"compound": "COC(C)(C)CC(C)=O", "values": [{"measurement": "Potency", "setting": "[1]", "value": "inactive"}, {"measurement": "ratio activity, negative = inhibition", "setting": "[2]", "value": "inconclusive: 24.1%"}]}, {"compound": "O=S(=O)(O)c1cccc(S(=O)(=O)O)c1", "values": [{"measurement": "Potency", "setting": "[1]", "value": "inactive"}]}, {"compound": "CC(C)(CO)C(O)C(=O)NCCCO", "note": "(configuration not stated)", "values": [{"measurement": "Potency", "setting": "[1]", "value": "inconclusive: 3.89 µM [activator, partial curve]"}, {"measurement": "ratio activity, negative = inhibition", "setting": "[2]", "value": "inconclusive: -4.28%"}]}, {"compound": "Cc1ccc(C(C)C)cc1", "values": [{"measurement": "activation", "setting": "[1]", "value": "inconclusive: 7.26% [at 78.9 µM]"}, {"measurement": "ratio activity, negative = inhibition", "setting": "[2]", "value": "inconclusive: 23.3% [at 81.1 µM]"}]}]}
